{"source": "a collection of fitness landscapes (doi:10.1016/j.celrep.2020.107928)", "parents": {"B1": {"name": "Caulobacter ParB omega fusion; a variant is named by its letters at X, in order, B8GW30 (parent)", "chain": "MESVVVGEPGMSEGRRGLGRGLSALLGEVDAAPAQAPGEQLGGSREAPIEILQRNPDQPRRTFREEDLEDLSNSIREKGVLQPILVRPSPDTAGEYQIVAGERAWRAAQRAGLKTVPIMVRELDDLAVLEIGIIENVQRADLNVLEEALSYKVLMEKFERTQENIAQTIGKSXSHVANXMRLLXLPDEVQSYLVSGELTAXHARAIAAAADPVALAKQIIEGGLSVRETEALARKAPNLSAGKSKGGRPPRVKDTDTQALESDLSSVLGLDVSIDHRGSTGTLTITYATLEQLDDLCNRLTRGI"}}, "note": "Over roughly 81,000 sequences, “one-hybrid fitness for binding NBS DNA” has its median near -0.1; the highest 2% begin near 0.36. Some of the results follow."}
{"variants_of": "B1", "assay": "one-hybrid fitness for binding NBS DNA (the Noc-binding site; scaled: cognate 1, non-cognate 0); higher = stronger binding", "settings": "with NBS DNA site", "summary_of_the_method": "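Caulobacter ParB libraries with four specificity codons randomised were screened by bacterial one-hybrid selection in the E. coli USO strain, using a HIS3 reporter whose site lies 19 bp from the promoter. Selection ran for 48 hours at 37°C on M9 lacking histidine, with 0.1 mM IPTG and 5 mM 3-AT. Plasmids were Illumina-sequenced before and after selection, three replicate libraries were pooled, and variants with under 10 reads were dropped. Fitness is the log change in each variant's read ratio to wild type, rescaled against the cognate and non-cognate sites.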"}
{"variant": "IDRS", "one-hybrid fitness for binding NBS DNA": "≤ 0.2"}
{"variant": "LVTS", "one-hybrid fitness for binding NBS DNA": "≤ 0.2"}
{"variant": "AGRT", "one-hybrid fitness for binding NBS DNA": "≤ 0.2"}
{"variant": "PGTW", "one-hybrid fitness for binding NBS DNA": "≤ 0.2"}
{"variant": "EMRG", "one-hybrid fitness for binding NBS DNA": "≤ 0.2"}
{"variant": "DVYS", "one-hybrid fitness for binding NBS DNA": "≤ 0.2"}
{"variant": "HVQY", "one-hybrid fitness for binding NBS DNA": "≤ 0.2"}
{"variant": "PRWD", "one-hybrid fitness for binding NBS DNA": "≤ 0.2"}
{"variant": "ESFT", "one-hybrid fitness for binding NBS DNA": "≤ 0.2"}
{"variant": "IRIR", "one-hybrid fitness for binding NBS DNA": "≤ 0.2"}
{"variant": "FLVL", "one-hybrid fitness for binding NBS DNA": "≤ 0.2"}
{"variant": "CSMG", "one-hybrid fitness for binding NBS DNA": "≤ 0.2"}
{"variant": "GLEV", "one-hybrid fitness for binding NBS DNA": "≤ 0.2"}
{"variant": "TNHC", "one-hybrid fitness for binding NBS DNA": "≤ 0.2"}
{"variant": "TAGS", "one-hybrid fitness for binding NBS DNA": "≤ 0.2"}
{"variant": "TRLG", "one-hybrid fitness for binding NBS DNA": "≤ 0.2"}
{"variant": "ICAT", "one-hybrid fitness for binding NBS DNA": "≤ 0.2"}
{"variant": "SGAD", "one-hybrid fitness for binding NBS DNA": "≤ 0.2"}
{"variant": "GKSS", "one-hybrid fitness for binding NBS DNA": "≤ 0.2"}
{"variant": "RQEL", "one-hybrid fitness for binding NBS DNA": "≤ 0.2"}
{"variant": "VHRV", "one-hybrid fitness for binding NBS DNA": "≤ 0.2"}
{"variant": "HSRL", "one-hybrid fitness for binding NBS DNA": "≤ 0.2"}
{"variant": "NNTH", "one-hybrid fitness for binding NBS DNA": "≤ 0.2"}
{"variant": "AKAG", "one-hybrid fitness for binding NBS DNA": "≤ 0.2"}
{"variant": "EGFR", "one-hybrid fitness for binding NBS DNA": "≤ 0.2"}
{"variant": "CAQS", "one-hybrid fitness for binding NBS DNA": "≤ 0.2"}
{"variant": "IGRG", "one-hybrid fitness for binding NBS DNA": "≤ 0.2"}
{"variant": "VSFS", "one-hybrid fitness for binding NBS DNA": "≤ 0.2"}
{"variant": "LELV", "one-hybrid fitness for binding NBS DNA": "≤ 0.2"}
{"variant": "NNYT", "one-hybrid fitness for binding NBS DNA": "≤ 0.2"}
{"variant": "QKVM", "one-hybrid fitness for binding NBS DNA": 0.273}
{"variant": "MRWS", "one-hybrid fitness for binding NBS DNA": "≤ 0.2"}
{"variant": "MSLG", "one-hybrid fitness for binding NBS DNA": "≤ 0.2"}
{"variant": "RMAG", "one-hybrid fitness for binding NBS DNA": "≤ 0.2"}
{"variant": "FVNL", "one-hybrid fitness for binding NBS DNA": "≤ 0.2"}
{"variant": "QRTN", "one-hybrid fitness for binding NBS DNA": 0.429}
{"variant": "RRRH", "one-hybrid fitness for binding NBS DNA": 0.808}
{"variant": "PTSQ", "one-hybrid fitness for binding NBS DNA": "≤ 0.2"}
{"variant": "RDEV", "one-hybrid fitness for binding NBS DNA": "≤ 0.2"}
{"variant": "YGYL", "one-hybrid fitness for binding NBS DNA": "≤ 0.2"}
{"variant": "QQSH", "one-hybrid fitness for binding NBS DNA": 0.208}
{"variant": "DTPA", "one-hybrid fitness for binding NBS DNA": "≤ 0.2"}
{"variant": "NTDY", "one-hybrid fitness for binding NBS DNA": "≤ 0.2"}
{"variant": "FRDI", "one-hybrid fitness for binding NBS DNA": "≤ 0.2"}
{"variant": "KQQV", "one-hybrid fitness for binding NBS DNA": "≤ 0.2"}
{"variant": "LGLT", "one-hybrid fitness for binding NBS DNA": "≤ 0.2"}
{"variant": "LPWG", "one-hybrid fitness for binding NBS DNA": "≤ 0.2"}
{"variant": "DINW", "one-hybrid fitness for binding NBS DNA": "≤ 0.2"}
{"variant": "SRYG", "one-hybrid fitness for binding NBS DNA": "≤ 0.2"}
{"variant": "LHAV", "one-hybrid fitness for binding NBS DNA": "≤ 0.2"}
{"variant": "HYCG", "one-hybrid fitness for binding NBS DNA": "≤ 0.2"}
{"variant": "EKGS", "one-hybrid fitness for binding NBS DNA": "≤ 0.2"}
{"variant": "CPCR", "one-hybrid fitness for binding NBS DNA": "≤ 0.2"}
{"variant": "PAKW", "one-hybrid fitness for binding NBS DNA": "≤ 0.2"}
{"variant": "YKAA", "one-hybrid fitness for binding NBS DNA": "≤ 0.2"}
{"variant": "QISY", "one-hybrid fitness for binding NBS DNA": "≤ 0.2"}
{"variant": "QCSN", "one-hybrid fitness for binding NBS DNA": "≤ 0.2"}
{"variant": "PQTP", "one-hybrid fitness for binding NBS DNA": "≤ 0.2"}
{"variant": "GQTS", "one-hybrid fitness for binding NBS DNA": "≤ 0.2"}
{"variant": "NWSC", "one-hybrid fitness for binding NBS DNA": "≤ 0.2"}
{"variant": "SSPV", "one-hybrid fitness for binding NBS DNA": "≤ 0.2"}
{"variant": "RYKP", "one-hybrid fitness for binding NBS DNA": "≤ 0.2"}
{"variant": "GLSR", "one-hybrid fitness for binding NBS DNA": "≤ 0.2"}
{"variant": "PIAQ", "one-hybrid fitness for binding NBS DNA": "≤ 0.2"}
{"variant": "NSCR", "one-hybrid fitness for binding NBS DNA": "≤ 0.2"}
{"variant": "LHRL", "one-hybrid fitness for binding NBS DNA": "≤ 0.2"}
{"variant": "QAEI", "one-hybrid fitness for binding NBS DNA": "≤ 0.2"}
{"variant": "EFPY", "one-hybrid fitness for binding NBS DNA": "≤ 0.2"}
{"variant": "WERL", "one-hybrid fitness for binding NBS DNA": "≤ 0.2"}
{"variant": "QTGE", "one-hybrid fitness for binding NBS DNA": "≤ 0.2"}
{"variant": "KLYW", "one-hybrid fitness for binding NBS DNA": "≤ 0.2"}
{"variant": "IWKR", "one-hybrid fitness for binding NBS DNA": "≤ 0.2"}
{"variant": "NYSQ", "one-hybrid fitness for binding NBS DNA": "≤ 0.2"}
{"variant": "GPMW", "one-hybrid fitness for binding NBS DNA": "≤ 0.2"}
{"variant": "WFAY", "one-hybrid fitness for binding NBS DNA": "≤ 0.2"}
{"variant": "TAPG", "one-hybrid fitness for binding NBS DNA": "≤ 0.2"}
{"variant": "SFAC", "one-hybrid fitness for binding NBS DNA": "≤ 0.2"}
{"variant": "QFAW", "one-hybrid fitness for binding NBS DNA": "≤ 0.2"}
{"variant": "SEMT", "one-hybrid fitness for binding NBS DNA": "≤ 0.2"}
{"variant": "HCHT", "one-hybrid fitness for binding NBS DNA": "≤ 0.2"}
{"variant": "PVNF", "one-hybrid fitness for binding NBS DNA": "≤ 0.2"}
{"variant": "IIRR", "one-hybrid fitness for binding NBS DNA": "≤ 0.2"}
{"variant": "QVDY", "one-hybrid fitness for binding NBS DNA": "≤ 0.2"}
{"variant": "HTSW", "one-hybrid fitness for binding NBS DNA": "≤ 0.2"}
{"variant": "TARL", "one-hybrid fitness for binding NBS DNA": "≤ 0.2"}
{"variant": "RFSG", "one-hybrid fitness for binding NBS DNA": "≤ 0.2"}
{"variant": "QRTH", "one-hybrid fitness for binding NBS DNA": 0.57}
{"variant": "EVWI", "one-hybrid fitness for binding NBS DNA": "≤ 0.2"}
{"variant": "MKYS", "one-hybrid fitness for binding NBS DNA": "≤ 0.2"}
{"variant": "ERGS", "one-hybrid fitness for binding NBS DNA": "≤ 0.2"}
{"variant": "RHLY", "one-hybrid fitness for binding NBS DNA": "≤ 0.2"}
{"variant": "MGKP", "one-hybrid fitness for binding NBS DNA": "≤ 0.2"}
{"variant": "EGLR", "one-hybrid fitness for binding NBS DNA": "≤ 0.2"}
{"variant": "YYND", "one-hybrid fitness for binding NBS DNA": "≤ 0.2"}
{"variant": "MENT", "one-hybrid fitness for binding NBS DNA": "≤ 0.2"}
{"variant": "LYKT", "one-hybrid fitness for binding NBS DNA": "≤ 0.2"}
{"variant": "QCED", "one-hybrid fitness for binding NBS DNA": "≤ 0.2"}
{"variant": "NEVR", "one-hybrid fitness for binding NBS DNA": "≤ 0.2"}
{"variant": "QSRI", "one-hybrid fitness for binding NBS DNA": 0.338}
{"variant": "GDTS", "one-hybrid fitness for binding NBS DNA": "≤ 0.2"}
{"variant": "QMQR", "one-hybrid fitness for binding NBS DNA": 0.55}
{"variant": "HVGG", "one-hybrid fitness for binding NBS DNA": "≤ 0.2"}
{"variant": "RKQQ", "one-hybrid fitness for binding NBS DNA": "≤ 0.2"}
{"variant": "IMGG", "one-hybrid fitness for binding NBS DNA": "≤ 0.2"}
{"variant": "WSNG", "one-hybrid fitness for binding NBS DNA": "≤ 0.2"}
{"variant": "TWAL", "one-hybrid fitness for binding NBS DNA": "≤ 0.2"}
{"variant": "GDEL", "one-hybrid fitness for binding NBS DNA": "≤ 0.2"}
{"variant": "RVKE", "one-hybrid fitness for binding NBS DNA": "≤ 0.2"}
{"variant": "TRRY", "one-hybrid fitness for binding NBS DNA": 0.254}
{"variant": "TTNT", "one-hybrid fitness for binding NBS DNA": "≤ 0.2"}
{"variant": "KHGY", "one-hybrid fitness for binding NBS DNA": "≤ 0.2"}
{"variant": "YLFW", "one-hybrid fitness for binding NBS DNA": "≤ 0.2"}
{"variant": "RVGN", "one-hybrid fitness for binding NBS DNA": "≤ 0.2"}
{"variant": "AYVS", "one-hybrid fitness for binding NBS DNA": "≤ 0.2"}
{"variant": "SRKD", "one-hybrid fitness for binding NBS DNA": "≤ 0.2"}
{"variant": "KRKQ", "one-hybrid fitness for binding NBS DNA": 0.266}
{"variant": "IISN", "one-hybrid fitness for binding NBS DNA": "≤ 0.2"}
{"variant": "PCHV", "one-hybrid fitness for binding NBS DNA": "≤ 0.2"}
{"variant": "AAQF", "one-hybrid fitness for binding NBS DNA": "≤ 0.2"}
{"variant": "RACW", "one-hybrid fitness for binding NBS DNA": "≤ 0.2"}
{"variant": "NLRI", "one-hybrid fitness for binding NBS DNA": "≤ 0.2"}
{"variant": "PSLS", "one-hybrid fitness for binding NBS DNA": "≤ 0.2"}
{"variant": "PMRW", "one-hybrid fitness for binding NBS DNA": "≤ 0.2"}
{"variant": "EAYS", "one-hybrid fitness for binding NBS DNA": "≤ 0.2"}
{"variant": "FVHN", "one-hybrid fitness for binding NBS DNA": "≤ 0.2"}
{"variant": "IAKG", "one-hybrid fitness for binding NBS DNA": "≤ 0.2"}
{"variant": "KVLL", "one-hybrid fitness for binding NBS DNA": "≤ 0.2"}
{"variant": "CVET", "one-hybrid fitness for binding NBS DNA": "≤ 0.2"}
{"variant": "QFAE", "one-hybrid fitness for binding NBS DNA": "≤ 0.2"}
{"variant": "TMHC", "one-hybrid fitness for binding NBS DNA": "≤ 0.2"}
{"variant": "ELEL", "one-hybrid fitness for binding NBS DNA": "≤ 0.2"}
{"variant": "LINT", "one-hybrid fitness for binding NBS DNA": "≤ 0.2"}
{"variant": "RYGL", "one-hybrid fitness for binding NBS DNA": "≤ 0.2"}
{"variant": "HAPI", "one-hybrid fitness for binding NBS DNA": "≤ 0.2"}
{"variant": "KEIA", "one-hybrid fitness for binding NBS DNA": "≤ 0.2"}
{"variant": "SLSW", "one-hybrid fitness for binding NBS DNA": "≤ 0.2"}
{"variant": "RCHR", "one-hybrid fitness for binding NBS DNA": 0.586}
{"variant": "VFKS", "one-hybrid fitness for binding NBS DNA": "≤ 0.2"}
{"variant": "HPCK", "one-hybrid fitness for binding NBS DNA": "≤ 0.2"}
{"variant": "AVNH", "one-hybrid fitness for binding NBS DNA": "≤ 0.2"}
{"variant": "QVMS", "one-hybrid fitness for binding NBS DNA": "≤ 0.2"}
{"variant": "DTTC", "one-hybrid fitness for binding NBS DNA": "≤ 0.2"}
{"variant": "TPFR", "one-hybrid fitness for binding NBS DNA": "≤ 0.2"}
{"variant": "HGAG", "one-hybrid fitness for binding NBS DNA": "≤ 0.2"}
{"variant": "VLHT", "one-hybrid fitness for binding NBS DNA": "≤ 0.2"}
{"variant": "TAQP", "one-hybrid fitness for binding NBS DNA": "≤ 0.2"}
{"variant": "SADW", "one-hybrid fitness for binding NBS DNA": "≤ 0.2"}
{"variant": "KIAC", "one-hybrid fitness for binding NBS DNA": "≤ 0.2"}
{"variant": "DPTA", "one-hybrid fitness for binding NBS DNA": "≤ 0.2"}
{"variant": "PWGT", "one-hybrid fitness for binding NBS DNA": "≤ 0.2"}
{"variant": "EVFT", "one-hybrid fitness for binding NBS DNA": "≤ 0.2"}
{"variant": "IPHG", "one-hybrid fitness for binding NBS DNA": "≤ 0.2"}
{"variant": "HAFN", "one-hybrid fitness for binding NBS DNA": "≤ 0.2"}
